From paper PMC4336329 (PLoS ONE, 2015)
Screen size: about 310,000 compounds; about 2,200 (0.71%) showed an effect of 50% or more. The effect is printed as a negative number. The list shows a part of the results.

biological target: human ether-à-go-go-related gene (hERG) potassium channel (human, UniProt Q12809); assay: primary screen, population patch clamp on CHO cells stably expressing hERG
Sequence (Q12809 whole entry, looked up): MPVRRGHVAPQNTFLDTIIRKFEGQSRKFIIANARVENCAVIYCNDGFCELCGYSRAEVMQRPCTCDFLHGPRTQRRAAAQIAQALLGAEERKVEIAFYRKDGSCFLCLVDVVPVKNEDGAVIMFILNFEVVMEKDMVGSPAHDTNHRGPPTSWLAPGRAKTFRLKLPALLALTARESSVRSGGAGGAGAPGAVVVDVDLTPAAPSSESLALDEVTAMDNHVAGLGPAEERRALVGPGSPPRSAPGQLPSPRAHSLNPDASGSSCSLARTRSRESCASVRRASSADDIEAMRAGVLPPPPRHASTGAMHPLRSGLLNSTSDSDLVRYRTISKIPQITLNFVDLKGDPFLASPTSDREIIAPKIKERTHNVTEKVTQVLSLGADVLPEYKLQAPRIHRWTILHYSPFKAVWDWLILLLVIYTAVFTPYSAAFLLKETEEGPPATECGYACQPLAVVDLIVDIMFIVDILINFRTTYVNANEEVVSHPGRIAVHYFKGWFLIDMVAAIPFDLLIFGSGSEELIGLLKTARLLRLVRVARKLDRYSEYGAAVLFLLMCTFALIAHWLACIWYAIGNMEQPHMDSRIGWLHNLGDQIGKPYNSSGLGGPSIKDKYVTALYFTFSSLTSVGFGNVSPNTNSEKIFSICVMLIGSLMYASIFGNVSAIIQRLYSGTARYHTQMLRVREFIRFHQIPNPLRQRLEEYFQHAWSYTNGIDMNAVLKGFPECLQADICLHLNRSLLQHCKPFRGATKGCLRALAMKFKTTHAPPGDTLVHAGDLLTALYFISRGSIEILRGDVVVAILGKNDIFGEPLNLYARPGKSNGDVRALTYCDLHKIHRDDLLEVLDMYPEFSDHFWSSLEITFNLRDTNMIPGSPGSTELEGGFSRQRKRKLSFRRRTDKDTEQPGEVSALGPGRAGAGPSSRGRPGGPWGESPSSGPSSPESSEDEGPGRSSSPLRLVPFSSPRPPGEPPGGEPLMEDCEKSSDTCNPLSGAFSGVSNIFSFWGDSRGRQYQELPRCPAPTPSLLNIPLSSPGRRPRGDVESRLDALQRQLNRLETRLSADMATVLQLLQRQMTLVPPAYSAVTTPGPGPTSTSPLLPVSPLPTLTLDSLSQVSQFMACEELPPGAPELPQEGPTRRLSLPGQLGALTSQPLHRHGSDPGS

**Q.** How did the “hERG current change (%, negative = inhibition) at 1uM” value turn out when `COc1cc(NC(=S)NC(=O)c2ccccc2C)ccc1NC(=O)c1cccs1` was run?
**A.** 16.4%

**Q.** With `Cn1nc(-c2ccccc2)cc1NS(=O)(=O)c1ccccc1` as the compound, how does the “hERG current change (%, negative = inhibition) at 1uM” value read?
**A.** 9.07%

**Q.** With `Cc1ccc(C(=O)NC2CCCCNC2=O)cc1` (centres unmarked) as the compound, how does the “hERG current change (%, negative = inhibition) at 1uM” value read?
**A.** 11.2%

**Q.** With `O=C1C=CC(=O)N1c1cccc(-c2ccccc2)c1` as the compound, how does the “hERG current change (%, negative = inhibition) at 1uM” value read?
**A.** 11.9%

**Q.** For `Cc1oncc1C(=O)N1CCCC(CO)(Cc2ccc(F)cc2F)C1` (centres unmarked), which “hERG current change (%, negative = inhibition) at 1uM” value is on record?
**A.** 11.8%

**Q.** How did the “hERG current change (%, negative = inhibition) at 1uM” value turn out when `CN(C)c1ccc(CNCCC2CCOC(C)(C)C2)cc1.Cl` (centres unmarked) was run?
**A.** 12%

**Q.** `CCCCSCCCNC(=O)Nc1ccc(CC)cc1` was tested. Which “hERG current change (%, negative = inhibition) at 1uM” value did it give?
**A.** 8.64%

**Q.** Which “hERG current change (%, negative = inhibition) at 1uM” value does the source give for `CCOc1cc(C(=S)N2CCOCC2)ccc1OC(=O)c1cc(OC)c(OC)c(OC)c1` here?
**A.** 11.1%

**Q.** `CC(=O)N1CCc2cc(S(=O)(=O)NC(CC(C)C)C(=O)Nc3ccc4c(c3)OCCO4)ccc21` (centres unmarked) was tested. Which “hERG current change (%, negative = inhibition) at 1uM” value did it give?
**A.** 15.9%

**Q.** `CC1CCCCN1CCCNC(=O)c1c(O)nc2ccccn2c1=O` (centres unmarked) was tested. Which “hERG current change (%, negative = inhibition) at 1uM” value did it give?
**A.** 20.8%

**Q.** With `CCN(c1ccccc1)c1ncnc2c1cnn2-c1ccccc1` as the compound, how does the “hERG current change (%, negative = inhibition) at 1uM” value read?
**A.** 6.26%

**Q.** Which “hERG current change (%, negative = inhibition) at 1uM” value does the source give for `COc1cccc(CN2CCNC(=O)C2CC(=O)N(C)CCC2CCOCC2)c1OC` (centres unmarked) here?
**A.** 3.28%

**Q.** Which “hERG current change (%, negative = inhibition) at 1uM” value does the source give for `O=C(NC1=NCCS1)c1ccc(Cl)c(S(=O)(=O)N2CCc3ccccc32)c1` here?
**A.** 8.34%

**Q.** For `O=C(c1ccc(CNS(=O)(=O)c2cccc(Cl)c2)cc1)N1CCCC1`, which “hERG current change (%, negative = inhibition) at 1uM” value is on record?
**A.** 15.2%

**Q.** `O=C(O)c1ccc(NS(=O)(=O)/C=C/c2ccccc2)cc1O` was tested. Which “hERG current change (%, negative = inhibition) at 1uM” value did it give?
**A.** 6.71%

**Q.** `CC(C)(C)NC(=O)CSc1nc2ccc(Nc3nc(N4CCOCC4)nc(N4CCOCC4)n3)cc2s1` was tested. Which “hERG current change (%, negative = inhibition) at 1uM” value did it give?
**A.** 0.618%

**Q.** Which “hERG current change (%, negative = inhibition) at 1uM” value does the source give for `COc1ccc(NC(=O)C2CCCN(S(=O)(=O)c3ccc4c(c3)CC(C)N4C(C)=O)C2)cc1` (centres unmarked) here?
**A.** 18.6%

**Q.** Which “hERG current change (%, negative = inhibition) at 1uM” value does the source give for `Cc1ccccc1N1CCN(S(=O)(=O)Cc2ccccc2)CC1` here?
**A.** 13.1%

**Q.** How did the “hERG current change (%, negative = inhibition) at 1uM” value turn out when `COc1nnc(-c2ccc(N3CCCCC3)c(NC(=O)C3CCCCC3)c2)c2ccccc12` was run?
**A.** -0.481%

**Q.** Which “hERG current change (%, negative = inhibition) at 1uM” value does the source give for `S=C(Cc1ccccc1)NCCc1ccccc1` here?
**A.** -14.9%

**Q.** How did the “hERG current change (%, negative = inhibition) at 1uM” value turn out when `CCN(CC(=O)NC1CCS(=O)(=O)C1)c1nc(-c2ccccc2)nc2ccccc12` (centres unmarked) was run?
**A.** -8.26%

**Q.** Which “hERG current change (%, negative = inhibition) at 1uM” value does the source give for `Nc1cc2c([N+](=O)[O-])cccc2o1` here?
**A.** 5.4%

**Q.** Which “hERG current change (%, negative = inhibition) at 1uM” value does the source give for `COc1cccc(OC)c1CN1CCCC(C(=O)c2cccc(Cl)c2)C1` (centres unmarked) here?
**A.** -7.07%

**Q.** Which “hERG current change (%, negative = inhibition) at 1uM” value does the source give for `COc1cccc(NC(=S)N(CCc2c(C)[nH]c3ccccc23)Cc2cccs2)c1` here?
**A.** 10.1%

**Q.** For `Cc1ccc(CNc2nc3ccccc3s2)s1`, which “hERG current change (%, negative = inhibition) at 1uM” value is on record?
**A.** -1.34%

**Q.** With `O=[N+]([O-])c1ccc([N+](=O)[O-])c(Nc2ccc(N3CCOCC3)cc2)c1` as the compound, how does the “hERG current change (%, negative = inhibition) at 1uM” value read?
**A.** 9.8%

**Q.** How did the “hERG current change (%, negative = inhibition) at 1uM” value turn out when `Nc1c(Br)cc(Br)cc1CNC1CCC(O)CC1` (centres unmarked) was run?
**A.** 10.1%

**Q.** `O=c1cc(CO)oc(CN2CCN(CCO)CC2)c1O` was tested. Which “hERG current change (%, negative = inhibition) at 1uM” value did it give?
**A.** -8.32%

**Q.** With `COC(=O)c1sc(SC)c(S(=O)(=O)C(C)C)c1N` as the compound, how does the “hERG current change (%, negative = inhibition) at 1uM” value read?
**A.** 4.81%

**Q.** For `Cc1ccc(N(NC(=O)C(C)(C)O)C(=O)c2ccccc2)cc1C`, which “hERG current change (%, negative = inhibition) at 1uM” value is on record?
**A.** 11.4%

**Q.** With `O=C1C(Cl)=C(NCC2CCCO2)C(=O)N1CCc1ccccc1` (centres unmarked) as the compound, how does the “hERG current change (%, negative = inhibition) at 1uM” value read?
**A.** -13%

**Q.** For `Fc1ccc(/C=N/N2CCCCC2)c(F)c1`, which “hERG current change (%, negative = inhibition) at 1uM” value is on record?
**A.** 11.8%

**Q.** For `O=C(Cn1nnc(-c2ccccc2)n1)NCc1cccs1`, which “hERG current change (%, negative = inhibition) at 1uM” value is on record?
**A.** 12.6%

**Q.** With `COc1ccc(N2CC(C(=O)Nc3ccc(S(=O)(=O)Nc4nccs4)cc3)CC2=O)cc1` (centres unmarked) as the compound, how does the “hERG current change (%, negative = inhibition) at 1uM” value read?
**A.** 16.5%

**Q.** `COc1ccc(NC(=O)C(=O)N2N=C(C(C)C)CC2(O)C(F)(F)F)cc1` (centres unmarked) was tested. Which “hERG current change (%, negative = inhibition) at 1uM” value did it give?
**A.** 5.47%

**Q.** `CCOC(=O)c1cc(C#N)c(Oc2ccccc2)nc1-c1ccccc1` was tested. Which “hERG current change (%, negative = inhibition) at 1uM” value did it give?
**A.** 5.47%

**Q.** `O=[N+]([O-])c1ccccc1NC1CCN(Cc2ccccc2)CC1` was tested. Which “hERG current change (%, negative = inhibition) at 1uM” value did it give?
**A.** -26.7%

**Q.** Which “hERG current change (%, negative = inhibition) at 1uM” value does the source give for `Cc1nnc(N(C(=O)c2cnccn2)c2ccccc2)s1` here?
**A.** 19.8%

**Q.** Which “hERG current change (%, negative = inhibition) at 1uM” value does the source give for `CC1(C)C(=O)Nc2ccccc2N1C(=O)CN1C(=O)c2ccccc2C1=O` here?
**A.** -1.3%

**Q.** With `Cc1ccccc1NS(=O)(=O)c1cc2c3c(c1)C(C)C(=O)N3CCC2` (centres unmarked) as the compound, how does the “hERG current change (%, negative = inhibition) at 1uM” value read?
**A.** 11.3%

**Q.** For `CC(C)CCNC(=O)CCn1nc(-c2ccccc2)ccc1=O`, which “hERG current change (%, negative = inhibition) at 1uM” value is on record?
**A.** -18.4%

**Q.** `Cc1nn(C(C)C(=O)NC2CCCCCC2)c(=O)c2nn(-c3ccccc3)c(C)c12` (centres unmarked) was tested. Which “hERG current change (%, negative = inhibition) at 1uM” value did it give?
**A.** 6.73%

**Q.** How did the “hERG current change (%, negative = inhibition) at 1uM” value turn out when `COc1cccc(C(C(=O)NC(C)(C)C)N(C(=O)CCC(=O)Nc2cc(C)on2)C(C)(C)C)c1OC` (centres unmarked) was run?
**A.** -0.281%

**Q.** How did the “hERG current change (%, negative = inhibition) at 1uM” value turn out when `Cc1cccc(C(=O)Nc2ccc(N3CCN(S(C)(=O)=O)CC3)cc2)c1` was run?
**A.** 15.3%

**Q.** How did the “hERG current change (%, negative = inhibition) at 1uM” value turn out when `CCOc1cc(C(=O)NCc2ccc(-c3nc4ccccc4o3)cc2)cc(OCC)c1OCC` was run?
**A.** 2.79%

**Q.** `CC(C)(C)OC(=O)NCCc1nnc(S(=O)(=O)Cc2ccc(Cl)cc2Cl)o1` was tested. Which “hERG current change (%, negative = inhibition) at 1uM” value did it give?
**A.** -7.89%

**Q.** Which “hERG current change (%, negative = inhibition) at 1uM” value does the source give for `COc1ccc(NC(=O)/C=C/c2cccc(C(F)(F)F)c2)cn1` here?
**A.** 12.5%

**Q.** With `Cc1ccc(C)c(C(C)NC(=O)C2CC=CCC2C(=O)O)c1` (centres unmarked) as the compound, how does the “hERG current change (%, negative = inhibition) at 1uM” value read?
**A.** 11.3%

**Q.** Which “hERG current change (%, negative = inhibition) at 1uM” value does the source give for `CCCN(C(=O)COC(=O)C12CCC(=O)N1c1ccccc1S2)c1c(N)n(Cc2ccccc2)c(=O)[nH]c1=O` (centres unmarked) here?
**A.** 11.1%

**Q.** `COC(=O)c1ccc(Nc2cc(C)nc(-c3ccccc3O)n2)cc1` was tested. Which “hERG current change (%, negative = inhibition) at 1uM” value did it give?
**A.** 14.7%

**Q.** With `NC(=O)NC(=O)CSc1cccc(C(F)(F)F)c1` as the compound, how does the “hERG current change (%, negative = inhibition) at 1uM” value read?
**A.** 13%

**Q.** For `Cn1nnnc1SCC(=O)N1CCN(S(=O)(=O)c2ccccc2)CC1`, which “hERG current change (%, negative = inhibition) at 1uM” value is on record?
**A.** 8.02%

**Q.** Which “hERG current change (%, negative = inhibition) at 1uM” value does the source give for `Cc1ccc2c(c1)C1CN(C)CCC1N2C(=O)c1cccc(S(=O)(=O)N(C)C)c1.c1ccccc1` (centres unmarked) here?
**A.** 5.4%

**Q.** How did the “hERG current change (%, negative = inhibition) at 1uM” value turn out when `COc1cccc(CN(C)C(=O)c2[nH]c(C)c(C(C)=O)c2C)c1OC` was run?
**A.** 13.3%

**Q.** Which “hERG current change (%, negative = inhibition) at 1uM” value does the source give for `CCOC(=O)c1cc(NC(=O)NCc2ccco2)c(C)nc1C` here?
**A.** 8.63%

**Q.** With `CC1CN(S(=O)(=O)c2ccc(C(=O)Nc3sccc3C(N)=O)cc2)CC(C)O1` (centres unmarked) as the compound, how does the “hERG current change (%, negative = inhibition) at 1uM” value read?
**A.** 0.0412%
